# Experimental data reported in the supplement of paper PMC8728848.
# The other results are listed elsewhere or left out.
# B1: Si Bti9 1b-V5-his (Solanum lycopersicum) (protein)
# chain: MQCNRGCDLALASFYVWRGSNLTLISEMFSTSIADIVSYNNRDNIPNQDSVIAGTRINIPFRCDCLNDGEVLGHAFPYRVKSGDTYDLVARNYSDLTTAQWMMKFNSYPENNIPNTVNLSVVVNCSCGNSDVSKDFGLFVTYPVRAEDNLTSVASAANVSEDIIRRYNPAAVSILDIGQGIIYIPGRDRNGNFPPLPTSTDGLSGGAKKGGRADPAFLYKVVINSKLEGKPIPNPLLGLDSTRTGHHHHHH
# Columns and labels:
# Experiment in all cases: glycan array binding signal (z-score within array); higher = stronger binding
# Conditions in all cases: glycan notation: IUPAC condensed, linker removed
# [1] = molecular target: Gal(b1-4)GlcNAc(b1-3)Gal(b1-4)Glc
# Method in brief: (§1)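 From the Consortium for Functional Glycomics database, 3228 arrays were curated, keeping only those whose protein sequence was available. Binding is given as a within-array Z-score averaged across arrays sharing a protein sequence and across linkers. Negative Z-scores can be read as non-binding.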
# [2] = molecular target: Gal(b1-4)GlcNAc(b1-3)Gal(b1-4)GlcNAc
# Method in brief: as §1
# [3] = molecular target: Gal(b1-4)GlcNAc(b1-3)Gal(b1-4)GlcNAc(b1-2)Man(a1-3)[Gal(b1-4)GlcNAc(b1-3)Gal(b1-4)GlcNAc(b1-2)Man(a1-6)]Man(b1-4)GlcNAc(b1-4)GlcNAc
# Method in brief: as §1
# [4] = molecular target: Gal(b1-4)GlcNAc(b1-3)Gal(b1-4)GlcNAc(b1-2)Man(a1-3)[Gal(b1-4)GlcNAc(b1-3)Gal(b1-4)GlcNAc(b1-2)Man(a1-6)]Man(b1-4)GlcNAc(b1-4)[Fuc(a1-6)]GlcNAc
# Method in brief: as §1
# [5] = molecular target: Gal(b1-4)GlcNAc(b1-3)Gal(b1-4)GlcNAc(b1-2)[Gal(b1-4)GlcNAc(b1-3)Gal(b1-4)GlcNAc(b1-6)]Man(a1-6)[Gal(b1-4)GlcNAc(b1-3)Gal(b1-4)GlcNAc(b1-2)Man(a1-3)]Man(b1-4)GlcNAc(b1-4)GlcNAc
# Method in brief: as §1
# [6] = molecular target: Gal(b1-4)GlcNAc(b1-3)Gal(b1-4)GlcNAc(b1-2)[Gal(b1-4)GlcNAc(b1-3)Gal(b1-4)GlcNAc(b1-6)]Man(a1-6)[Gal(b1-4)GlcNAc(b1-3)Gal(b1-4)GlcNAc(b1-2)Man(a1-3)]Man(b1-4)GlcNAc(b1-4)[Fuc(a1-6)]GlcNAc
# Method in brief: as §1
# [7] = molecular target: Gal(b1-4)GlcNAc(b1-3)Gal(b1-4)GlcNAc(b1-3)Gal(b1-4)GlcNAc
# Method in brief: as §1
# [8] = molecular target: Gal(b1-4)GlcNAc(b1-3)Gal(b1-4)GlcNAc(b1-3)Gal(b1-4)GlcNAc(b1-2)Man(a1-3)[Gal(b1-4)GlcNAc(b1-3)Gal(b1-4)GlcNAc(b1-3)Gal(b1-4)GlcNAc(b1-2)Man(a1-6)]Man(b1-4)GlcNAc(b1-4)GlcNAc
# Method in brief: as §1
# [9] = molecular target: Gal(b1-4)GlcNAc(b1-3)Gal(b1-4)GlcNAc(b1-3)Gal(b1-4)GlcNAc(b1-2)Man(a1-3)[Gal(b1-4)GlcNAc(b1-3)Gal(b1-4)GlcNAc(b1-3)Gal(b1-4)GlcNAc(b1-2)Man(a1-6)]Man(b1-4)GlcNAc(b1-4)[Fuc(a1-6)]GlcNAc
# Method in brief: as §1
# [10] = molecular target: Gal(b1-4)GlcNAc(b1-3)Gal(b1-4)GlcNAc(b1-3)Gal(b1-4)GlcNAc(b1-2)[Gal(b1-4)GlcNAc(b1-3)Gal(b1-4)GlcNAc(b1-3)Gal(b1-4)GlcNAc(b1-6)]Man(a1-6)[Gal(b1-4)GlcNAc(b1-3)Gal(b1-4)GlcNAc(b1-3)Gal(b1-4)GlcNAc(b1-2)Man(a1-3)]Man(b1-4)GlcNAc(b1-4)[Fuc(a1-6)]GlcNAc
# Method in brief: as §1
# [11] = molecular target: Gal(b1-4)GlcNAc(b1-3)Gal(b1-4)GlcNAc(b1-3)Gal(b1-4)GlcNAc(b1-3)Gal(b1-4)GlcNAc(b1-2)Man(a1-3)[Gal(b1-4)GlcNAc(b1-3)Gal(b1-4)GlcNAc(b1-3)Gal(b1-4)GlcNAc(b1-3)Gal(b1-4)GlcNAc(b1-2)Man(a1-6)]Man(b1-4)GlcNAc(b1-4)GlcNAc
# Method in brief: as §1
# [12] = molecular target: Gal(b1-4)GlcNAc(b1-3)Gal(b1-4)GlcNAc(b1-3)Gal(b1-4)GlcNAc(b1-3)Gal(b1-4)GlcNAc(b1-2)Man(a1-3)[Gal(b1-4)GlcNAc(b1-3)Gal(b1-4)GlcNAc(b1-3)Gal(b1-4)GlcNAc(b1-3)Gal(b1-4)GlcNAc(b1-2)Man(a1-6)]Man(b1-4)GlcNAc(b1-4)[Fuc(a1-6)]GlcNAc
# Method in brief: as §1
# [13] = molecular target: Gal(b1-4)GlcNAc(b1-3)Gal(b1-4)GlcNAc(b1-3)Gal(b1-4)GlcNAc(b1-3)Gal(b1-4)GlcNAc(b1-2)[Gal(b1-4)GlcNAc(b1-3)Gal(b1-4)GlcNAc(b1-3)Gal(b1-4)GlcNAc(b1-3)Gal(b1-4)GlcNAc(b1-6)]Man(a1-6)[Gal(b1-4)GlcNAc(b1-3)Gal(b1-4)GlcNAc(b1-3)Gal(b1-4)GlcNAc(b1-3)Gal(b1-4)GlcNAc(b1-2)Man(a1-3)]Man(b1-4)GlcNAc(b1-4)[Fuc(a1-6)]GlcNAc
# Method in brief: as §1
# [14] = molecular target: Gal(b1-4)GlcNAc(b1-3)Gal(b1-4)GlcNAc(b1-3)Gal(b1-4)GlcNAc(b1-3)Gal(b1-4)GlcNAc(b1-3)Gal(b1-4)GlcNAc(b1-2)Man(a1-3)[Gal(b1-4)GlcNAc(b1-3)Gal(b1-4)GlcNAc(b1-3)Gal(b1-4)GlcNAc(b1-3)Gal(b1-4)GlcNAc(b1-3)Gal(b1-4)GlcNAc(b1-2)Man(a1-6)]Man(b1-4)GlcNAc(b1-4)GlcNAc
# Method in brief: as §1
# [15] = molecular target: Gal(b1-4)GlcNAc(b1-3)Gal(b1-4)GlcNAc(b1-3)Gal(b1-4)GlcNAc(b1-3)Gal(b1-4)GlcNAc(b1-3)Gal(b1-4)GlcNAc(b1-2)Man(a1-3)[Gal(b1-4)GlcNAc(b1-3)Gal(b1-4)GlcNAc(b1-3)Gal(b1-4)GlcNAc(b1-3)Gal(b1-4)GlcNAc(b1-3)Gal(b1-4)GlcNAc(b1-2)Man(a1-6)]Man(b1-4)GlcNAc(b1-4)[Fuc(a1-6)]GlcNAc
# Method in brief: as §1
# [16] = molecular target: Gal(b1-4)GlcNAc(b1-3)Gal(b1-4)GlcNAc(b1-3)Gal(b1-4)GlcNAc(b1-3)Gal(b1-4)GlcNAc(b1-3)Gal(b1-4)GlcNAc(b1-2)[Gal(b1-4)GlcNAc(b1-3)Gal(b1-4)GlcNAc(b1-3)Gal(b1-4)GlcNAc(b1-3)Gal(b1-4)GlcNAc(b1-3)Gal(b1-4)GlcNAc(b1-6)]Man(a1-6)[Gal(b1-4)GlcNAc(b1-3)Gal(b1-4)GlcNAc(b1-3)Gal(b1-4)GlcNAc(b1-3)Gal(b1-4)GlcNAc(b1-3)Gal(b1-4)GlcNAc(b1-2)Man(a1-3)]Man(b1-4)GlcNAc(b1-4)[Fuc(a1-6)]GlcNAc
# Method in brief: as §1
# [17] = molecular target: Gal(b1-4)GlcNAc(b1-3)Gal(b1-4)GlcNAc(b1-3)Gal(b1-4)GlcNAc(b1-3)Gal(b1-4)GlcNAc(b1-3)Gal(b1-4)GlcNAc(b1-3)Gal(b1-4)GlcNAc(b1-2)Man(a1-3)[Gal(b1-4)GlcNAc(b1-3)Gal(b1-4)GlcNAc(b1-3)Gal(b1-4)GlcNAc(b1-3)Gal(b1-4)GlcNAc(b1-3)Gal(b1-4)GlcNAc(b1-3)Gal(b1-4)GlcNAc(b1-2)Man(a1-6)]Man(b1-4)GlcNAc(b1-4)GlcNAc
# Method in brief: as §1
# [18] = molecular target: Gal(b1-4)GlcNAc(b1-3)Gal(b1-4)GlcNAc(b1-3)GalNAc
# Method in brief: as §1
# [19] = molecular target: Gal(b1-4)GlcNAc(b1-3)Gal(b1-4)GlcNAc(b1-3)[Gal(b1-4)GlcNAc(b1-3)Gal(b1-4)GlcNAc(b1-6)]GalNAc
# Method in brief: as §1
binder,measurement,setting,value
B1,glycan array binding signal (z-score),[1],-0.16
same,glycan array binding signal (z-score),[2],-0.25
same,glycan array binding signal (z-score),[3],1.57
same,glycan array binding signal (z-score),[4],-0.052
same,glycan array binding signal (z-score),[5],1.13
same,glycan array binding signal (z-score),[6],0.273
same,glycan array binding signal (z-score),[7],-0.285
same,glycan array binding signal (z-score),[8],0.058
same,glycan array binding signal (z-score),[9],-0.157
same,glycan array binding signal (z-score),[10],0.218
same,glycan array binding signal (z-score),[11],-0.234
same,glycan array binding signal (z-score),[12],0.046
same,glycan array binding signal (z-score),[13],0.207
same,glycan array binding signal (z-score),[14],-0.09
same,glycan array binding signal (z-score),[15],-0.258
same,glycan array binding signal (z-score),[16],-0.167
same,glycan array binding signal (z-score),[17],0.07
same,glycan array binding signal (z-score),[18],-0.204
same,glycan array binding signal (z-score),[19],0.207
